# Results published in PMC12040169 (PLOS Biology, 2025).
# The other results are listed elsewhere or left out.
# System: T1, C. trachomatis L2/434/Bu expressing GFP (CTL2-GFP)
# T1 construct: L2/434/Bu GFP intracellular growth in HeLa cells
# Parameters: species or system HeLa; C. trachomatis total inclusion area by high-content imaging, normalised to DMSO
# Settings: total inclusion area; 28.5 h, 10 µM; inhibitor
# Procedure, shortened: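 Imaging read-out: GFP inclusions and Hoechst nuclei captured by high-content imaging after fixation. Inclusion area/number = chlamydial growth; nuclei count = host cell viability. MIC calculated per earlier method.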
row,SMILES,% of control remaining
1,c1csc(CCN2CCC3(C2)NCCc2c3[nH]c3ccccc23)c1 (stereo not drawn) [CBK040196],87.746
2,O=C1COc2ccccc2CCCC[C@@H]2CNCC[C@H]2N1 [CBK292038],76.2645
3,NS(=O)(=O)c1ccc(CCNC(=O)c2ccc([N+](=O)[O-])cc2)cc1 [CBK263773],101.568
4,Cc1ccc2nc(NC(=O)C3COc4ccccc4O3)sc2c1 (stereo not drawn) [CBK287366],105.562
5,O=[N+]([O-])c1ccc(Oc2ccccc2)nc1 [CBK002726],103.547
6,COc1ccc(N(C(C)C(=O)NN=C2CCN(C)CC2)S(C)(=O)=O)cc1 (stereo not drawn) [CBK262390],110.572
7,CCCCNC(=O)c1ccc2nc(C)c(N(C)CC3CCCCC3)n2c1 [CBK145913],75.2813
8,COc1ccc2c(c1)C(O)CC1(CCN(CC(O)c3ccc(-c4ccccc4)cc3)CC1)O2 (stereo not drawn) [CBK286398],93.9106
9,Cc1ccccc1-n1ncc2c(N3CCCC3)ncnc21 [CBK287648],103.314
10,CN(C)CC(C)(C)CNC(=O)c1cc(-c2ccc(C(=O)N3CCOCC3)cc2)cnc1N [CBK158574],103.186
11,N#CCCCN1CCN(c2nccnc2OCc2cccnc2)CC1 [CBK083144],71.7962
12,Nc1c(-c2ccc3c(c2)CCO3)cnc2ncccc12 [CBK083678],83.692
13,CC(C)(C)c1nnc([C@H]2CCN(C(=O)CCC(=O)O)C2)o1 [CBK289406],99.0064
14,COCOc1ccc(-c2nc(-c3cccc(NS(C)(=O)=O)c3)cnc2N)cc1 [CBK063985],97.4839
15,c1ccc(CCN2CCC(Oc3nccnc3OCCN3CCOCC3)CC2)nc1 [CBK082944],91.1401
16,Cc1c(NS(=O)(=O)c2cc(C(=O)O)c(Cl)cc2Cl)c(=O)n(-c2ccccc2)n1C [CBK296123],89.5117
17,CN1CC[C@@]2(c3cc(F)cc(F)c3)CCC(=O)CC12 (stereo partly drawn) [CBK002500],58.2196
18,C=CCOc1cccn2c(N(C=O)Cc3ccccc3)c(CC)nc12 [CBK147827],83.2151
19,O=C1CCC(=O)N1CCOc1nccnc1N1CCN(Cc2ccccc2F)CC1 [CBK084289],91.4239
20,CC(C)(C)c1cc(/C=N/Nc2nc3ccccc3[nH]2)cc(C(C)(C)C)c1O [CBK262247],27.2194
21,Cc1ccc(NC(=O)c2ccc3c(c2)C(=O)N(c2cccc(N4C(=O)c5ccc(C(=O)Nc6ccc(C)cc6)cc5C4=O)n2)C3=O)cc1 [CBK261198],93.357
22,CN1CCC(=NNC(=O)c2ccc(CN(c3ccccc3)S(C)(=O)=O)cc2)CC1 [CBK262728],85.2392
23,CCn1ncc(CN2CCCC(c3cc4cccnc4[nH]3)C2)c1C (stereo not drawn) [CBK284700],101.365
24,Cc1cccc(C2CCCN(C(=O)Nc3cnn(C)c3)C2)c1 (stereo not drawn) [CBK306961],85.5695
25,Cc1ccc(C(=O)N2CCn3c2nc2ccccc23)cc1 [CBK288204],131.931
26,COc1ccc(C2=NNC(c3ccc(C(=O)O)cc3)C2)cc1 (stereo not drawn) [CBK287167],115.486

row,SMILES,% of control remaining
1,CC(C)c1ccc(/C=C/C(=O)N2CCN(C3CCN(C)CC3)CC2)cc1 [CBK149094],80.0974
2,Nc1ncc(CCCN2CCOCC2)c(N)n1 [CBK025981],68.9026
3,O=c1n(CC2CCCCC2)c2ccccc2n1S(=O)(=O)CCc1cccc2ccccc12 [CBK106525],88.1594
4,CN(C)CCNC(=O)c1cccc(-c2cnc3[nH]c(=O)n(Cc4ccc(S(C)(=O)=O)cc4)c3n2)c1 [CBK065069],125.385
5,COC(=O)c1c(NC(=S)NCCn2cc(Br)cn2)sc2c1CCC(C)C2 (stereo not drawn) [CBK266886],113.25
6,COc1ccc(NC(=O)C2CCCN2c2nc(O)cc(C(F)(F)F)n2)cc1 (stereo not drawn) [CBK003704],91.7351
7,Cc1ccc(C(=O)NNC(=O)c2ccc([N+](=O)[O-])cc2)cc1 [CBK261793],84.6889
8,O=S(=O)(NCCSc1nnnn1-c1ccccc1)c1cccs1 [CBK268013],80.1274
9,C[C@@H]1CN(C(=O)OCc2ncc(F)cc2F)C[C@H](C)O1 [CBK200286],53.4727
10,CCN(CC(=O)N1CCN(c2cc(Cl)ccc2C)CC1)S(=O)(=O)c1ccc2ccccc2c1 [CBK268827],116.414
11,Cc1noc(C)c1S(=O)(=O)Nc1ccc2cc(Br)cnc2n1 [CBK073893],90.5911
12,Cc1cccc(OCC(=O)Nc2ncn(Cc3cccnc3)n2)c1 [CBK304919],96.7182
13,COCCCn1c(=O)[nH]c2ncc(-c3cc(C(C)C)ccc3OC)nc21 [CBK064351],105.826
14,COc1cc(C)c(S(=O)(=O)Nc2ccc(CC(=O)O)cc2)cc1C [CBK299782],91.7223
15,O=C(O)c1cc(S(=O)(=O)NCc2ccco2)ccc1Cl [CBK058905],42.6664
16,CC(=O)Nc1ccc(NC(=O)CC2SCCNC2=O)cc1 (stereo not drawn) [CBK269921],94.2839
17,O=C(NCCN1CCC(O)(c2cccc(F)c2)CC1)c1cccs1 [CBK282450],73.2385
18,CC(=O)Nc1nc(C)c(S(=O)(=O)Nc2nc(C(C)C)ns2)s1 [CBK051227],111.173
19,COc1cc2c(cc1CN1CCOCC1CC(=O)O)CCC2 (stereo not drawn) [CBK307277],39.6933
20,COc1cc(C2C3=C(COC3=O)Nc3[nH]nc(C)c32)ccc1O (stereo not drawn) [CBK288146],93.4697
21,O=C(O)C1(Cc2ccc(-c3ccccc3)cc2)CCNC1 (stereo not drawn) [CBK281687],85.2748
22,O=C(CC1SC(N2CCOCC2)=NC1=O)Nc1cccc(C(=O)O)c1 (stereo not drawn) [CBK300498],88.637
23,CCC(NC(=O)CCN1Cc2ccccc2C1=O)c1ccc(F)cc1 (stereo not drawn) [CBK282657],90.0825
24,Cc1ccc(NC(=O)CC(C(=O)O)N(C)C)cc1 (stereo not drawn) [CBK267068],112.18
25,Cc1nc(C)c(CC(=O)N(C)CC2OCCc3ccccc32)s1 (stereo not drawn) [CBK281478],90.4526
